# Measurements published in PMC4336329 (PLoS ONE, 2015).
# Among all 310,000 compounds or so, about 2,200 (0.71%) showed an effect of 50% or more. The effect is printed as a negative number. This is one part of the list.
# Target: human ether-à-go-go-related gene (hERG) potassium channel (human, UniProt Q12809)
# Test: primary screen, population patch clamp on CHO cells stably expressing hERG
# Sequence of human ether-à-go-go-related gene (hERG) potassium channel (Q12809 whole entry, looked up): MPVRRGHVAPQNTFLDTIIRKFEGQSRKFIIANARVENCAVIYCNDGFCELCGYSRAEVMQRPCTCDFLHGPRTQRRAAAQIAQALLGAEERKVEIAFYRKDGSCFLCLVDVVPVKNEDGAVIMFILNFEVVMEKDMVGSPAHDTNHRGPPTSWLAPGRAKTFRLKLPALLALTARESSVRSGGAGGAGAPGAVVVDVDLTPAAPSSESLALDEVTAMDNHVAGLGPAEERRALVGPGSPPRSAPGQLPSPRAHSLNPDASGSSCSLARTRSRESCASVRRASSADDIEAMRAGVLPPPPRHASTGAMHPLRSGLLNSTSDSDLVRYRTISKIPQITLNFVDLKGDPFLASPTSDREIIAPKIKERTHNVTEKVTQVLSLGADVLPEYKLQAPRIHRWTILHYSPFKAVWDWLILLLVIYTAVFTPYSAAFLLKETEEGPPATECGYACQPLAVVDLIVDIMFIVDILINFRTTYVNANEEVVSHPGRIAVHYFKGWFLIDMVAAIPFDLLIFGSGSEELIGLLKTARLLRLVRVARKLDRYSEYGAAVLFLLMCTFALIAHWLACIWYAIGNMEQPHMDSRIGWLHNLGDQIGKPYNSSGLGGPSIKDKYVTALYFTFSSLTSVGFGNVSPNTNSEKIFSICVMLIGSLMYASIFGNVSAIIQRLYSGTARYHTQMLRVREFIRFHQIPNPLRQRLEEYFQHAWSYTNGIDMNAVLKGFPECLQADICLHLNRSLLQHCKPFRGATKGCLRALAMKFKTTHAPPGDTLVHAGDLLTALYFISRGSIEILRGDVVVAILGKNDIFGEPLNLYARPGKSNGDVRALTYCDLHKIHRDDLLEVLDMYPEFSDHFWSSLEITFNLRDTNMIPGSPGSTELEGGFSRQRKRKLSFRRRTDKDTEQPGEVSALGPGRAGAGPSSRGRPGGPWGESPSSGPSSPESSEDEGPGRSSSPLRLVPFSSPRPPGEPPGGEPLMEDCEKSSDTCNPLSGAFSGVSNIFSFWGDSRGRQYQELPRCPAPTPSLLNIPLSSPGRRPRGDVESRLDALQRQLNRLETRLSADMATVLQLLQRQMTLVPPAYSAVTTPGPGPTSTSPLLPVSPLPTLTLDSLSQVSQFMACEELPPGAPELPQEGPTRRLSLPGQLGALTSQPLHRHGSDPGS
row,SMILES,"hERG current change (%, negative = inhibition) at 1uM"
1,CCOC(=O)c1ccc(NC(=O)c2c(Cl)cc(C)nc2C)cc1.Cl,6.89%
2,COc1cccc(N2CCN(S(=O)(=O)c3cc4c(cc3C)N(C)CCO4)CC2)c1,1.14%
3,COc1ccc(C(=O)Nc2cc(C(C)=O)c(C)oc2=O)cc1,12.8%
4,COc1ccc(C(=O)n2nc(-c3ccco3)nc2N)cc1,5.5%
5,CCCN1CCC(=O)N([C@H](CSc2ccc(OC)cc2)Cc2ccccc2)CC1,-36.3%
6,CN(Cc1ccccn1)Cc1cn(Cc2ccccc2)nc1-c1ccc2c(c1)OCO2,-0.8%
7,O=C(CSc1nc2ncc(Cl)cc2[nH]1)NCCc1ccc(F)cc1,11.2%
8,O=C(NC1CCCCCCC1)c1cccnc1,5.68%
9,CC1CCc2nn(CC(=O)NC3CCCC(C)C3C)cc2C1 (stereo not drawn),5.66%
10,N/C(=N\OC(=O)c1ccc2c(c1)OCO2)c1cccc(Br)c1,6.24%
11,CCCCNC(=O)CCn1nc(-c2ccc(Cl)cc2)ccc1=O,5.63%
12,O=C(NC1CCCCC1)Oc1cccc2ccccc12,15.9%
13,COc1ccc(C2NC(=O)CS2)cc1 (stereo not drawn),-8.67%
14,O=C(CC1C(=O)NCCN1C(=O)c1ccc([N+](=O)[O-])cc1)Nc1cccc(Cl)c1 (stereo not drawn),-2.37%
15,N#C/C(=C/c1ccco1)C(N)=S,6.97%
16,O=C(O)c1cc(NC(=O)C2CCCO2)cc(NC(=O)C2CCCO2)c1 (stereo not drawn),6.2%
17,CCOC(=O)c1cc(CC)sc1/N=C/C1C(=O)CCCC1=O,11.1%
18,CC(C)NC(=O)c1c(O)c2cccc3c2n(c1=O)CCC3,15.5%
19,COCCn1nnnc1C(c1ccc2ncccc2c1)N1CCN(c2ccccc2F)CC1 (stereo not drawn),7.87%

row,SMILES,"hERG current change (%, negative = inhibition) at 1uM"
1,Cn1c(=O)c2c(ncn2CC(=O)OCC(=O)NC2CCCc3ccccc32)n(C)c1=O (stereo not drawn),6.89%
2,NC(=O)COC(=O)C12CC3CC(CC(O)(C3)C1)C2,10.1%
3,CCOC(=O)C1CCCN(c2oc(-c3ccc(F)cc3)nc2C#N)C1 (stereo not drawn),-0.349%
4,O=C(Nc1cccc([N+](=O)[O-])c1)C1CCN(C(=O)Cc2ccccc2)CC1,-12.8%
5,CCOC(=O)C1CCN(C(=O)CCS(=O)(=O)c2ccc3c(c2)CCN3C(=O)CC)CC1,6.63%
6,c1ccc(Cn2nnc3c(N4CCN(Cc5ccc6c(c5)OCO6)CC4)ncnc32)cc1,-0.682%
7,CCOc1cc2[nH]c(=S)n(CCc3ccc(OC)c(OC)c3)c(=O)c2cc1OCC,1.01%
8,O=C(CCN1C(=O)[C@@H]2Cc3ccccc3CN2C1=O)N[C@@H](C(=O)O)c1ccccc1,11.1%
9,O=C(Cc1ccc(F)cc1)Nc1nc(-c2ccc(F)cc2)cs1,22.4%
10,O=C(/C=C/c1ccc([N+](=O)[O-])cc1)N1CCN(S(=O)(=O)c2cccs2)CC1,2.21%
11,Cc1csc(NC(=O)c2cnc3ccccc3n2)n1,7.3%
12,COc1ccc(Cl)cc1NC(=O)C1CC(c2c(F)cccc2Cl)=NO1 (stereo not drawn),8.77%
13,CCN(CC)CCN(C(=O)c1ccc(C(C)=O)cc1)c1nc2ccc(Cl)cc2s1.Cl,6.65%
14,CC(=O)Nc1cccc(Oc2ccc3c(c2)C(=O)N(CCC(=O)O)C3=O)c1,14.8%
15,Cc1ccccc1C(=O)N1CCc2cc(-c3csc(NC(=O)CN4CCCC4)n3)ccc21,14.3%
16,O=C(NCCS(=O)(=O)N1CCN(c2ccccc2F)CC1)c1c(F)cccc1F,3.03%
17,Cc1cccc(OCCCCNCc2ccccc2)c1.O=C(O)C(=O)O,-7.43%
18,COc1ccc(CN2CCCC(C(=O)N3CCCCC3)C2)cc1.O=C(O)C(=O)O (stereo not drawn),10.5%
19,Cc1ccc(NC(=O)C2=NNC(=O)CC2)cc1S(=O)(=O)Nc1ccc(SC(F)F)cc1,2.82%

row,SMILES,"hERG current change (%, negative = inhibition) at 1uM"
1,CCc1nnc(NC(=O)CSc2nccn2-c2cccc(C)c2C)s1,17.4%
2,CC(=O)N(CCC1(C(C)C)CCOC(C)(C)C1)C(C)c1cccs1 (stereo not drawn),11.5%
3,CC1(CC(=O)N/N=C/c2ccc(-c3ccc(C(=O)O)cc3)o2)OCCO1,1.83%
4,CC(CO)Nc1nc(SCc2ccccc2)nc2sc3c(c12)CCC3 (stereo not drawn),15.5%
5,O=C(NCC1CCCN1S(=O)(=O)c1cccs1)c1c(F)cccc1F (stereo not drawn),17.5%
6,CCCn1c(C)cc(C(=O)CSc2nc3nc(C)cc(C)n3n2)c1C,8.43%
7,COc1ccc(C)cc1NC(=O)COC(=O)c1ccc([N+](=O)[O-])o1,11.9%
8,CCCC(=O)Nc1cc(=O)[nH]c2ncnn12,7.73%
9,Cc1nn(CC(=O)N2CCOCC2)c(=O)c2c1sc1ccccc12,2.63%
10,CCc1ccc(NC(=O)CCn2c(=O)oc3ccccc32)cc1,5.27%
11,CCn1c(CN2CCN(c3ccc(Cl)cc3)CC2)nc2ccccc21,-12.7%
12,Cc1ccc(C(C)NC(=S)NC2CCCCC2)cc1C (stereo not drawn),9.56%
13,COc1ccc(C(=O)NCC(=O)OCc2ccccc2F)cc1,9.29%
14,Cc1cc(C)c(S(=O)(=O)N(CC(=O)N2CCOCC2)C2CCCCC2)c(C)c1,4.05%
15,Cc1ccc(C(=O)N/C(=C\c2cccs2)c2nc3ccccc3[nH]2)cc1,7.15%
16,Cc1cccc(C(=O)N[C@H](C(=O)OCC(=O)NC(=O)c2cccn2C)C(C)C)c1,10.6%
17,O=C(O)Cc1ccc(NCc2ccccc2Cl)cc1,3.32%
18,CN(C)c1ccc(S(=O)(=O)N2CCCCC2)cc1NC(=O)CN1C(=O)NC2(CCCC2)C1=O,13.2%
19,O=C(c1c[nH]c2ccc(F)cc2c1=O)N1CCCCCC1,12.3%
